Measured values published in the supplement of paper PMC8728848.
The list shows a part of the results.

Columns and labels:
Test in all cases: glycan array binding signal (z-score within array); higher = stronger binding
Conditions in all cases: glycan notation: IUPAC condensed, linker removed
[1] = biological target: Neu5Ac(a2-6)Gal(b1-4)GlcNAc(b1-2)Man(a1-3)[GlcNAc(b1-4)][Neu5Ac(a2-6)Gal(b1-4)GlcNAc(b1-2)Man(a1-6)]Man(b1-4)GlcNAc(b1-4)GlcNAc
Summary of the method: (§1)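 Columns mapping to the same glycan were averaged after glycan names were converted to IUPAC-condensed notation. The data come from 3228 arrays in the Consortium for Functional Glycomics database, limited to those with an available protein sequence. Binding is reported as a within-array Z-score averaged across arrays of one protein sequence and across linkers.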

[2] = biological target: Neu5Ac(a2-6)Gal(b1-4)GlcNAc(b1-2)Man(a1-3)[Man(a1-6)]Man(b1-4)GlcNAc(b1-4)GlcNAc
Summary of the method: as §1

[3] = biological target: Neu5Ac(a2-6)Gal(b1-4)GlcNAc(b1-2)Man(a1-3)[Neu5Ac(a2-3)Gal(b1-4)GlcNAc(b1-2)Man(a1-6)]Man(b1-4)GlcNAc(b1-4)GlcNAc
Summary of the method: as §1

[4] = biological target: Neu5Ac(a2-6)Gal(b1-4)GlcNAc(b1-2)Man(a1-3)[Neu5Ac(a2-6)Gal(b1-4)GlcNAc(b1-2)Man(a1-6)]Man(b1-4)GlcNAc(b1-4)GlcNAc
Summary of the method: as §1

[5] = biological target: Neu5Ac(a2-6)Gal(b1-4)GlcNAc(b1-2)Man(a1-3)[Neu5Ac(a2-6)Gal(b1-4)GlcNAc(b1-2)Man(a1-6)]Man(b1-4)GlcNAc(b1-4)[Fuc(a1-6)]GlcNAc
Summary of the method: as §1

[6] = biological target: Neu5Ac(a2-6)Gal(b1-4)GlcNAc(b1-2)Man(a1-6)Man(b1-4)GlcNAc(b1-4)GlcNAc
Summary of the method: as §1

[7] = biological target: Neu5Ac(a2-6)Gal(b1-4)GlcNAc(b1-2)Man(a1-6)[Gal(b1-4)GlcNAc(b1-2)Man(a1-3)]Man(b1-4)GlcNAc(b1-4)GlcNAc
Summary of the method: as §1

[8] = biological target: Neu5Ac(a2-6)Gal(b1-4)GlcNAc(b1-2)Man(a1-6)[GlcNAc(b1-2)Man(a1-3)]Man(b1-4)GlcNAc(b1-4)GlcNAc
Summary of the method: as §1

[9] = biological target: Neu5Ac(a2-6)Gal(b1-4)GlcNAc(b1-2)Man(a1-6)[Man(a1-3)]Man(b1-4)GlcNAc(b1-4)GlcNAc
Summary of the method: as §1

[10] = biological target: Neu5Ac(a2-6)Gal(b1-4)GlcNAc(b1-2)[Neu5Ac(a2-6)Gal(b1-4)GlcNAc(b1-4)]Man(a1-3)[GlcNAc(b1-4)][Neu5Ac(a2-6)Gal(b1-4)GlcNAc(b1-2)[Neu5Ac(a2-6)Gal(b1-4)GlcNAc(b1-6)]Man(a1-6)]Man(b1-4)GlcNAc(b1-4)GlcNAc
Summary of the method: as §1

[11] = biological target: Neu5Ac(a2-6)Gal(b1-4)GlcNAc(b1-2)[Neu5Ac(a2-6)Gal(b1-4)GlcNAc(b1-4)]Man(a1-3)[GlcNAc(b1-4)][Neu5Ac(a2-6)Gal(b1-4)GlcNAc(b1-4)Man(a1-6)]Man(b1-4)GlcNAc(b1-4)GlcNAc
Summary of the method: as §1

[12] = biological target: Neu5Ac(a2-6)Gal(b1-4)GlcNAc(b1-2)[Neu5Ac(a2-6)Gal(b1-4)GlcNAc(b1-6)]Man(a1-6)[Neu5Ac(a2-6)Gal(b1-4)GlcNAc(b1-2)Man(a1-3)][GlcNAc(b1-4)]Man(b1-4)GlcNAc(b1-4)GlcNAc
Summary of the method: as §1

[13] = biological target: Neu5Ac(a2-6)Gal(b1-4)GlcNAc(b1-3)Gal(b1-3)GlcNAc
Summary of the method: as §1

[14] = biological target: Neu5Ac(a2-6)Gal(b1-4)GlcNAc(b1-3)Gal(b1-4)GlcNAc
Summary of the method: as §1

[15] = biological target: Neu5Ac(a2-6)Gal(b1-4)GlcNAc(b1-3)Gal(b1-4)GlcNAc(b1-2)Man(a1-3)[Neu5Ac(a2-6)Gal(b1-4)GlcNAc(b1-3)Gal(b1-4)GlcNAc(b1-2)Man(a1-6)]GalNAc
Summary of the method: as §1

[16] = biological target: Neu5Ac(a2-6)Gal(b1-4)GlcNAc(b1-3)Gal(b1-4)GlcNAc(b1-3)Gal(b1-4)GlcNAc
Summary of the method: as §1

[17] = biological target: Neu5Ac(a2-6)Gal(b1-4)GlcNAc(b1-3)Gal(b1-4)GlcNAc(b1-3)Gal(b1-4)GlcNAc(b1-2)Man(a1-3)[Neu5Ac(a2-6)Gal(b1-4)GlcNAc(b1-3)Gal(b1-4)GlcNAc(b1-3)Gal(b1-4)GlcNAc(b1-2)Man(a1-6)]GalNAc
Summary of the method: as §1

[18] = biological target: Neu5Ac(a2-6)Gal(b1-4)GlcNAc(b1-3)Gal(b1-4)GlcNAc(b1-3)GalNAc
Summary of the method: as §1

[19] = biological target: Neu5Ac(a2-6)Gal(b1-4)GlcNAc(b1-3)Gal(b1-4)GlcNAc(b1-3)[Neu5Ac(a2-6)Gal(b1-4)GlcNAc(b1-3)Gal(b1-4)GlcNAc(b1-6)]GalNAc
Summary of the method: as §1

[20] = biological target: Neu5Ac(a2-6)Gal(b1-4)GlcNAc(b1-3)Gal(b1-4)GlcNAc(b1-6)[Gal(b1-3)]GalNAc
Summary of the method: as §1

[21] = biological target: Neu5Ac(a2-6)Gal(b1-4)GlcNAc(b1-3)Gal(b1-4)[Fuc(a1-3)]GlcNAc(b1-3)Gal(b1-4)[Fuc(a1-3)]GlcNAc
Summary of the method: as §1

[22] = biological target: Neu5Ac(a2-6)Gal(b1-4)GlcNAc(b1-3)GalNAc
Summary of the method: as §1

[23] = biological target: Neu5Ac(a2-6)Gal(b1-4)GlcNAc(b1-3)[Neu5Ac(a2-6)Gal(b1-4)GlcNAc(b1-6)]GalNAc
Summary of the method: as §1

[24] = biological target: Neu5Ac(a2-6)Gal(b1-4)GlcNAc(b1-6)GalNAc
Summary of the method: as §1

[25] = biological target: Neu5Ac(a2-6)Gal(b1-4)GlcNAc(b1-6)[Gal(b1-3)GlcNAc(b1-3)]Gal(b1-4)Glc
Summary of the method: as §1

[26] = biological target: Neu5Ac(a2-6)Gal(b1-4)GlcNAc(b1-6)[Gal(b1-3)]GalNAc
Summary of the method: as §1

[27] = biological target: Neu5Ac(a2-6)Gal(b1-4)GlcNAc6S
Summary of the method: as §1

Neu5Ac(a2-6)GalNAc = biological target: Neu5Ac(a2-6)GalNAc
Summary of the method: as §1

[28] = biological target: Neu5Ac(a2-6)GalNAc(b1-4)GlcNAc
Summary of the method: as §1

[29] = biological target: Neu5Ac(a2-6)GalNAc(b1-4)GlcNAc6S
Summary of the method: as §1

[30] = biological target: Neu5Ac(a2-6)GlcNAc(b1-4)GlcNAc
Summary of the method: as §1

B1: MGL (Homo sapiens), Q8IUN9 (protein)
chain: MTRTYENFQYLENKVKVQGFKNGPLPLQSLLQRLCSGPCHLLLSLGLGLLLLVIICVVGFQNSKFQRDLVTLRTDFSNFTSNTVAEIQALTSQGSSLEETIASLKAEVEGFKQERQAGVSELQEHTTQKAHLGHCPHCPSVCVPVHSEMLLRVQQLVQDLKKLTCQVATLNNNASTEGTCCPVNWVEHQDSCYWFSHSGMSWAEAEKYCQLKNAHLVVINSREEQNFVQKYLGSAYTWMGLSDPEGAWKWVDGTDYATGFQNWKPGQPDDWQGHGLGGGEDCAHFHPDGRWNDDVCQRPYHWVCEAGLGQTSQESH
glycan array binding signal (z-score) [1]: -0.237
glycan array binding signal (z-score) [2]: -0.271
glycan array binding signal (z-score) [3]: -0.245
glycan array binding signal (z-score) [4]: -0.242
glycan array binding signal (z-score) [5]: -0.247
glycan array binding signal (z-score) [6]: -0.241
glycan array binding signal (z-score) [7]: -0.241
glycan array binding signal (z-score) [8]: -0.24
glycan array binding signal (z-score) [9]: -0.246
glycan array binding signal (z-score) [10]: -0.943
glycan array binding signal (z-score) [11]: -0.478
glycan array binding signal (z-score) [12]: -0.241
glycan array binding signal (z-score) [13]: -0.247
glycan array binding signal (z-score) [14]: -0.238
glycan array binding signal (z-score) [15]: -0.213
glycan array binding signal (z-score) [16]: -0.232
glycan array binding signal (z-score) [17]: -0.208
glycan array binding signal (z-score) [18]: -0.566
glycan array binding signal (z-score) [19]: -0.228
glycan array binding signal (z-score) [20]: -0.248
glycan array binding signal (z-score) [21]: -0.222
glycan array binding signal (z-score) [22]: -0.12
glycan array binding signal (z-score) [23]: -0.224
glycan array binding signal (z-score) [24]: -0.233
glycan array binding signal (z-score) [25]: -0.252
glycan array binding signal (z-score) [26]: -0.245
glycan array binding signal (z-score) [27]: -0.253
glycan array binding signal (z-score) (Neu5Ac(a2-6)GalNAc): 1.88
glycan array binding signal (z-score) [28]: 1.59
glycan array binding signal (z-score) [29]: 0.198
glycan array binding signal (z-score) [30]: -0.241
